To fix the notation:
T1: RBFOX1 RRM RbFoxmut (Fox-RRM*) (Homo sapiens, UniProt Q9NWB1 109-208, R118D;E147R;N151S;E152T)
T1 sequence: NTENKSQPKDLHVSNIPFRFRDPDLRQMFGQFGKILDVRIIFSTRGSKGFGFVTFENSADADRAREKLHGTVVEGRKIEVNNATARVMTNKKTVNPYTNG

B1: UGUCGGC (DNA:RNA)
RNA: GGGAGACCGGAAUUCAGAUUGUCCUGUCGGCUUAAAUCCCGUCGUAGCCACCA
DNA 1: CAATCTGAATTCCGGTCTCCC
DNA 2: TGGTGGCTACGACGGGATT
B2: GGUCGUC (DNA:RNA)
RNA: B1 RNA with U25G, G30U
DNA 1: CAATCTGAATTCCGGTCTCCC
DNA 2: TGGTGGCTACGACGGGATT
B3: CGGUGAC (DNA:RNA)
RNA: B1 RNA with U25C, U27G, C28U, G30A
DNA 1: CAATCTGAATTCCGGTCTCCC
DNA 2: TGGTGGCTACGACGGGATT
B4: UUUUUUC (DNA:RNA)
RNA: B1 RNA with G26U, C28U, G29U, G30U
DNA 1: CAATCTGAATTCCGGTCTCCC
DNA 2: TGGTGGCTACGACGGGATT
B5: ACAUUCG (DNA:RNA)
RNA: GGGAGACCGGAAUUCAGAUUGUCCACAUUCGUUAAAUCCCGUCGUAGCCACCA
DNA 1: CAATCTGAATTCCGGTCTCCC
DNA 2: TGGTGGCTACGACGGGATT
B6: CAUCCGA (DNA:RNA)
RNA: B1 RNA with U25C, G26A, G29C, C31A
DNA 1: CAATCTGAATTCCGGTCTCCC
DNA 2: TGGTGGCTACGACGGGATT
B7: AGAGGUU (DNA:RNA)
RNA: B5 RNA with C26G, U28G, U29G, C30U, G31U
DNA 1: CAATCTGAATTCCGGTCTCCC
DNA 2: TGGTGGCTACGACGGGATT
B8: GGUUCGA (DNA:RNA)
RNA: B1 RNA with U25G, C28U, G29C, C31A
DNA 1: CAATCTGAATTCCGGTCTCCC
DNA 2: TGGTGGCTACGACGGGATT
B9: CAUGGUG (DNA:RNA)
RNA: B1 RNA with U25C, G26A, C28G, G30U, C31G
DNA 1: CAATCTGAATTCCGGTCTCCC
DNA 2: TGGTGGCTACGACGGGATT

Positions count from the first letter of the chain named. The list shows a part of the results.

In PMC9911399, “Two distinct binding modes provide the RNA-binding protein RbFox with extraordinary sequence specificity” one finds binding signal data, which are given here for nine molecules.

The assay deals with T1, RBFOX1 RRM RbFoxmut (Fox-RRM*). The assay can be described thus: EMSA; HiTS-Eq, 1 nM pool, 10 min; buffer printed only for the single-RNA assays: 10 mM Tris pH 7.5, 150 mM NaCl, 3.4 mM EDTA, 0.001% NP-40, 30 C. The settings on record: tags: His6 N-terminal (pET28a); label: 5' 32P. Summed up: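 Purified RbFox RRM (wild type or mutant) was equilibrated for 10 min in 50 µL with 1 nM of a 5′-radiolabelled pool of RNA with 7 randomized nucleotides, its flanks annealed to DNA oligonucleotides, across increasing protein concentrations. Free RNA was separated by 8% native PAGE, excised, reverse-transcribed, PCR-barcoded and sequenced on an Illumina HiSeq 2500. Relative association constants came from read-count changes of each variant against the control reaction, normalised to the cognate motif.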
(A gel shift assay detects complexes by their altered migration in electrophoresis.)
In the case of B1, the binding signal was 0.104 KA relative to UGCAUGU.
As to B2, the binding signal is 0.159 KA relative to UGCAUGU.
On to B3, for which the binding signal was 0.0871 KA relative to UGCAUGU.
On to B4, for which the binding signal was 0.0746 KA relative to UGCAUGU.
The figure for B5 is 0.109 KA relative to UGCAUGU; for B6 it is 0.0593 KA relative to UGCAUGU; for B7 it is 0.0888 KA relative to UGCAUGU.
On to B8, for which the binding signal is 0.239 KA relative to UGCAUGU.
Take B9: the binding signal was 0.14 KA relative to UGCAUGU.
